# The supplement of paper PMC8728848
# The list shows a part of the results.
# B1: Cohesin-hLangerin (Homo sapiens) (protein)
# chain: LDDLDAVRIKVDTVNAKPGDTVRIPVRFSGIPSKGIANCDFVYSYDPNVLEIIEIEPGDIIVDPNPDKSFDTAVYPDRKIIVFLFAEDSGTGAYAITKDGVFATIVAKVKEGAPNGLSVIKFVEVGGFANNDLVEQKTQFFDGGANVGDTTEPATPTTPVTTPTTTDDLDAASYPRFMGTISDVKTNVQLLKGRVDNISTLDSEIKKNSDGMEAAGVQIQMVNESLGYVRSQFLKLKTSVEKANAQIQILTRSWEEVSTLNAQIPELKSDLEKASALNTKIRALQGSLENMSKLLKRQNDILQVVSQGWKYFKGNFYYFSLIPKTWYSAEQFCVSRNSHLTSVTSESEQEFLYKTAGGLIYWIGLTKAGMEGDWSWVDDTPFNKVQSARFWIPGEPNNAGNNEHCGNIKAPSLQAWNDAPCDKTFLFICKRPYVPSEPHHHHHH
# Columns and labels:
# Assay in all cases: glycan array binding signal (z-score within array); higher = stronger binding
# Conditions in all cases: glycan notation: IUPAC condensed, linker removed
# [1] = biological target: Gal(b1-4)GlcNAc(b1-3)Gal(b1-4)GlcNAc(b1-2)[Gal(b1-4)GlcNAc(b1-3)Gal(b1-4)GlcNAc(b1-6)]Man(a1-6)[Gal(b1-4)GlcNAc(b1-3)Gal(b1-4)GlcNAc(b1-2)Man(a1-3)]Man(b1-4)GlcNAc(b1-4)GlcNAc
# In short: (§1)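 The binding signal is a Z-score computed within each array and averaged over linkers. Arrays of the same protein sequence at different concentrations or buffers were also averaged together. Data originate from 3228 arrays in the Consortium for Functional Glycomics database, kept only where the protein sequence was available.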
# [2] = biological target: Gal(b1-4)GlcNAc(b1-3)Gal(b1-4)GlcNAc(b1-2)[Gal(b1-4)GlcNAc(b1-3)Gal(b1-4)GlcNAc(b1-6)]Man(a1-6)[Gal(b1-4)GlcNAc(b1-3)Gal(b1-4)GlcNAc(b1-2)Man(a1-3)]Man(b1-4)GlcNAc(b1-4)[Fuc(a1-6)]GlcNAc
# In short: as §1
# [3] = biological target: Gal(b1-4)GlcNAc(b1-3)Gal(b1-4)GlcNAc(b1-3)Gal(b1-4)GlcNAc
# In short: as §1
# [4] = biological target: Gal(b1-4)GlcNAc(b1-3)Gal(b1-4)GlcNAc(b1-3)Gal(b1-4)GlcNAc(b1-2)Man(a1-3)[Gal(b1-4)GlcNAc(b1-3)Gal(b1-4)GlcNAc(b1-3)Gal(b1-4)GlcNAc(b1-2)Man(a1-6)]Man(b1-4)GlcNAc(b1-4)GlcNAc
# In short: as §1
# [5] = biological target: Gal(b1-4)GlcNAc(b1-3)Gal(b1-4)GlcNAc(b1-3)Gal(b1-4)GlcNAc(b1-2)Man(a1-3)[Gal(b1-4)GlcNAc(b1-3)Gal(b1-4)GlcNAc(b1-3)Gal(b1-4)GlcNAc(b1-2)Man(a1-6)]Man(b1-4)GlcNAc(b1-4)[Fuc(a1-6)]GlcNAc
# In short: as §1
# [6] = biological target: Gal(b1-4)GlcNAc(b1-3)Gal(b1-4)GlcNAc(b1-3)Gal(b1-4)GlcNAc(b1-2)[Gal(b1-4)GlcNAc(b1-3)Gal(b1-4)GlcNAc(b1-3)Gal(b1-4)GlcNAc(b1-6)]Man(a1-6)[Gal(b1-4)GlcNAc(b1-3)Gal(b1-4)GlcNAc(b1-3)Gal(b1-4)GlcNAc(b1-2)Man(a1-3)]Man(b1-4)GlcNAc(b1-4)[Fuc(a1-6)]GlcNAc
# In short: as §1
# [7] = biological target: Gal(b1-4)GlcNAc(b1-3)Gal(b1-4)GlcNAc(b1-3)Gal(b1-4)GlcNAc(b1-3)Gal(b1-4)GlcNAc(b1-2)Man(a1-3)[Gal(b1-4)GlcNAc(b1-3)Gal(b1-4)GlcNAc(b1-3)Gal(b1-4)GlcNAc(b1-3)Gal(b1-4)GlcNAc(b1-2)Man(a1-6)]Man(b1-4)GlcNAc(b1-4)GlcNAc
# In short: as §1
# [8] = biological target: Gal(b1-4)GlcNAc(b1-3)Gal(b1-4)GlcNAc(b1-3)Gal(b1-4)GlcNAc(b1-3)Gal(b1-4)GlcNAc(b1-2)Man(a1-3)[Gal(b1-4)GlcNAc(b1-3)Gal(b1-4)GlcNAc(b1-3)Gal(b1-4)GlcNAc(b1-3)Gal(b1-4)GlcNAc(b1-2)Man(a1-6)]Man(b1-4)GlcNAc(b1-4)[Fuc(a1-6)]GlcNAc
# In short: as §1
# [9] = biological target: Gal(b1-4)GlcNAc(b1-3)Gal(b1-4)GlcNAc(b1-3)Gal(b1-4)GlcNAc(b1-3)Gal(b1-4)GlcNAc(b1-2)[Gal(b1-4)GlcNAc(b1-3)Gal(b1-4)GlcNAc(b1-3)Gal(b1-4)GlcNAc(b1-3)Gal(b1-4)GlcNAc(b1-6)]Man(a1-6)[Gal(b1-4)GlcNAc(b1-3)Gal(b1-4)GlcNAc(b1-3)Gal(b1-4)GlcNAc(b1-3)Gal(b1-4)GlcNAc(b1-2)Man(a1-3)]Man(b1-4)GlcNAc(b1-4)[Fuc(a1-6)]GlcNAc
# In short: as §1
# [10] = biological target: Gal(b1-4)GlcNAc(b1-3)Gal(b1-4)GlcNAc(b1-3)Gal(b1-4)GlcNAc(b1-3)Gal(b1-4)GlcNAc(b1-3)Gal(b1-4)GlcNAc(b1-2)Man(a1-3)[Gal(b1-4)GlcNAc(b1-3)Gal(b1-4)GlcNAc(b1-3)Gal(b1-4)GlcNAc(b1-3)Gal(b1-4)GlcNAc(b1-3)Gal(b1-4)GlcNAc(b1-2)Man(a1-6)]Man(b1-4)GlcNAc(b1-4)GlcNAc
# In short: as §1
# [11] = biological target: Gal(b1-4)GlcNAc(b1-3)Gal(b1-4)GlcNAc(b1-3)Gal(b1-4)GlcNAc(b1-3)Gal(b1-4)GlcNAc(b1-3)Gal(b1-4)GlcNAc(b1-2)Man(a1-3)[Gal(b1-4)GlcNAc(b1-3)Gal(b1-4)GlcNAc(b1-3)Gal(b1-4)GlcNAc(b1-3)Gal(b1-4)GlcNAc(b1-3)Gal(b1-4)GlcNAc(b1-2)Man(a1-6)]Man(b1-4)GlcNAc(b1-4)[Fuc(a1-6)]GlcNAc
# In short: as §1
# [12] = biological target: Gal(b1-4)GlcNAc(b1-3)Gal(b1-4)GlcNAc(b1-3)Gal(b1-4)GlcNAc(b1-3)Gal(b1-4)GlcNAc(b1-3)Gal(b1-4)GlcNAc(b1-2)[Gal(b1-4)GlcNAc(b1-3)Gal(b1-4)GlcNAc(b1-3)Gal(b1-4)GlcNAc(b1-3)Gal(b1-4)GlcNAc(b1-3)Gal(b1-4)GlcNAc(b1-6)]Man(a1-6)[Gal(b1-4)GlcNAc(b1-3)Gal(b1-4)GlcNAc(b1-3)Gal(b1-4)GlcNAc(b1-3)Gal(b1-4)GlcNAc(b1-3)Gal(b1-4)GlcNAc(b1-2)Man(a1-3)]Man(b1-4)GlcNAc(b1-4)[Fuc(a1-6)]GlcNAc
# In short: as §1
# [13] = biological target: Gal(b1-4)GlcNAc(b1-3)Gal(b1-4)GlcNAc(b1-3)Gal(b1-4)GlcNAc(b1-3)Gal(b1-4)GlcNAc(b1-3)Gal(b1-4)GlcNAc(b1-3)Gal(b1-4)GlcNAc(b1-2)Man(a1-3)[Gal(b1-4)GlcNAc(b1-3)Gal(b1-4)GlcNAc(b1-3)Gal(b1-4)GlcNAc(b1-3)Gal(b1-4)GlcNAc(b1-3)Gal(b1-4)GlcNAc(b1-3)Gal(b1-4)GlcNAc(b1-2)Man(a1-6)]Man(b1-4)GlcNAc(b1-4)GlcNAc
# In short: as §1
# [14] = biological target: Gal(b1-4)GlcNAc(b1-3)Gal(b1-4)GlcNAc(b1-3)GalNAc
# In short: as §1
# [15] = biological target: Gal(b1-4)GlcNAc(b1-3)Gal(b1-4)GlcNAc(b1-3)[Gal(b1-4)GlcNAc(b1-3)Gal(b1-4)GlcNAc(b1-6)]GalNAc
# In short: as §1
# [16] = biological target: Gal(b1-4)GlcNAc(b1-3)Gal(b1-4)GlcNAc(b1-6)[Gal(b1-3)]GalNAc
# In short: as §1
# [17] = biological target: Gal(b1-4)GlcNAc(b1-3)Gal(b1-4)[Fuc(a1-3)]GlcNAc(b1-3)Gal(b1-4)[Fuc(a1-3)]GlcNAc
# In short: as §1
# [18] = biological target: Gal(b1-4)GlcNAc(b1-3)GalNAc
# In short: as §1
# [19] = biological target: Gal(b1-4)GlcNAc(b1-3)[Fuc(a1-3)GlcNAc(b1-6)]Gal(b1-4)Glc
# In short: as §1
# [20] = biological target: Gal(b1-4)GlcNAc(b1-3)[Gal(b1-4)GlcNAc(b1-6)]Gal(b1-4)GlcNAc
# In short: as §1
# [21] = biological target: Gal(b1-4)GlcNAc(b1-3)[GlcNAc(b1-6)]Gal(b1-4)GlcNAc
# In short: as §1
# [22] = biological target: Gal(b1-4)GlcNAc(b1-6)Gal(b1-4)GlcNAc
# In short: as §1
binder,measurement,setting,value
B1,glycan array binding signal (z-score),[1],3.41
same,glycan array binding signal (z-score),[2],-0.08
same,glycan array binding signal (z-score),[3],-0.412
same,glycan array binding signal (z-score),[4],-0.091
same,glycan array binding signal (z-score),[5],-0.137
same,glycan array binding signal (z-score),[6],0.124
same,glycan array binding signal (z-score),[7],-0.012
same,glycan array binding signal (z-score),[8],-0.185
same,glycan array binding signal (z-score),[9],0.092
same,glycan array binding signal (z-score),[10],1.23
same,glycan array binding signal (z-score),[11],-0.112
same,glycan array binding signal (z-score),[12],0.332
same,glycan array binding signal (z-score),[13],0.548
same,glycan array binding signal (z-score),[14],-0.091
same,glycan array binding signal (z-score),[15],-0.082
same,glycan array binding signal (z-score),[16],0.078
same,glycan array binding signal (z-score),[17],-0.274
same,glycan array binding signal (z-score),[18],-0.438
same,glycan array binding signal (z-score),[19],-0.334
same,glycan array binding signal (z-score),[20],-0.445
same,glycan array binding signal (z-score),[21],-0.334
same,glycan array binding signal (z-score),[22],-0.274
